In PubChem BioAssay AID1030 (National Center for Advancing Translational Sciences (NCATS), 2008):
The whole screen tested about 220,000 compounds, of which about 16,000 (7.3%) were called active. The shares of active, inactive and inconclusive entries below differ from those in the screen. Calls come from the whole dose curve; as a rule, active = well fitted inhibition curve with a large enough effect (not every such curve was filed as active); inconclusive = small, poorly fitted or top-dose-only effect, or another doubt; inactive = no such curve, though single readings can be large or run the other way. No potency is given beside an inconclusive call; the fits are too rough.

Target: Aldehyde dehydrogenase 1A1 (Homo sapiens) (UniProt P00352)
Test: qHTS Assay for Inhibitors of Aldehyde Dehydrogenase 1 (ALDH1A1);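 for activity, negative = inhibition: plate controls were no enzyme wells and a reference inhibitor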
Details: Purified ALDH1A1, NADH fluorescence, propionaldehyde substrate; series mostly up to 75.3 µM; activity, negative = inhibition: at the top concentration
Potency is the fitted concentration of half-maximal effect; tags give direction and shape of the fitted curve.

Sequence of UniProt P00352 (P00352 whole entry, looked up): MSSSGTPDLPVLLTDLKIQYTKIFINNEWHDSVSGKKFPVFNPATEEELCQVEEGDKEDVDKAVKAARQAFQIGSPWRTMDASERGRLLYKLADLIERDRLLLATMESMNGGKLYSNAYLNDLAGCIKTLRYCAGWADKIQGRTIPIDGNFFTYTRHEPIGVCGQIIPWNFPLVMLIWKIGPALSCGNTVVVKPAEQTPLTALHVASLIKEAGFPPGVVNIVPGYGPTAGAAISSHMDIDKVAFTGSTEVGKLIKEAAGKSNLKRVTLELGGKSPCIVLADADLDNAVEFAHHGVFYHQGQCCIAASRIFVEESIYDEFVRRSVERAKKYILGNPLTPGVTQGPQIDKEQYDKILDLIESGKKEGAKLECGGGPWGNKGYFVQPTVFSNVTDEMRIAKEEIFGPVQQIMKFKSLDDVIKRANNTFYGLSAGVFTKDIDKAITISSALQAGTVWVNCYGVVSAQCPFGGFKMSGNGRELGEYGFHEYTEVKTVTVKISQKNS

SMILES	Potency	activity, negative = inhibition
O=c1c2sccc2n(Cc2cc(=O)n3ccccc3n2)c(=O)n1-c1ccccc1	inconclusive [inhibitor, single point]	–
CC(/C=N/n1c(-c2cccnc2)n[nH]c1=S)=C\c1ccccc1	inconclusive [inhibitor, full curve]	–
COc1ccc(-c2noc(-c3ccccc3C(=O)Nc3cccnc3)n2)cc1OC	inconclusive [inhibitor, single point]	–
CCc1ccc(C2=CC(c3cc(Br)ccc3F)n3ncnc3N2)cc1 (configuration not stated)	inconclusive [inhibitor, single point]	–
Cc1nnc(C)n1/N=C/c1ccc(O)cc1	–	inactive: -5.13%
COc1ccc(OC)c(CNC(=O)c2cc(=O)[nH]c3ccc(S(=O)(=O)N4CCCC4)cc23)c1	inconclusive [inhibitor, full curve]	–
CC(C)CC(=O)Nc1cc(C(F)(F)F)ccc1N1CCOCC1	inconclusive [inhibitor, single point]	–
Nc1nncn1C(=O)CCc1ccccc1	–	inactive: 14.2%
COc1ccccc1NS(=O)(=O)c1cccc(C(=O)N/N=C/c2c(C)nn(-c3ccccc3)c2N2CCCC2)c1	inconclusive [inhibitor, single point]	–
O=C(c1ccc(Cl)cc1)[C@@H]1[C@@H]2C(=O)N(c3ccccc3)C(=O)[C@@H]2C2c3ccccc3C=NN21 (some centres not stated)	inconclusive [inhibitor, single point]	–
O=c1oc2ccccc2c(O)c1/C=N/c1ccccn1	inconclusive [inhibitor, single point]	–
S=C(NCCCN1CCOCC1)N1CCN(c2nc(-c3ccccc3)cs2)CC1	inconclusive [inhibitor, single point]	–
CCOC(=O)C/C(C)=N\Nc1ccc([N+](=O)[O-])cc1[N+](=O)[O-]	inconclusive [inhibitor, partial curve]	–
COc1ccc(C)cc1NC(=O)C(OC(=O)c1cc(C)oc1C)c1ccccc1 (configuration not stated)	–	inactive: -3.52%
COC(=O)c1ccccc1NC(=S)NC(NC(=O)c1ccccc1[N+](=O)[O-])C(Cl)(Cl)Cl (configuration not stated)	inconclusive [inhibitor, single point]	–
O=C(Nc1nc(-c2ccccc2)cs1)C1CCCO1 (configuration not stated)	inconclusive [inhibitor, single point]	–
CCOC(=O)/C(=C\C=C\c1ccccc1)NC(=O)c1ccccc1	inconclusive [inhibitor, single point]	–
Cc1cccc2c1N(CCCOc1ccccc1)C(=O)C2=O	active: 0.0355 µM	–
C/C(=N/NC(=O)c1ccccc1O)c1ccc(N2C(=O)C3CCCCC3C2=O)cc1 (configuration not stated)	inconclusive [inhibitor, single point]	–
c1ccc(CCNc2ncnc3nc[nH]c23)cc1	–	inactive: 3.29%
O=S(=O)(c1ccccc1)c1nc(-c2ccco2)oc1N1CCCCCC1	active: 0.199 µM	–
COc1cccc(C(=O)N(Cc2ccco2)Cc2cc3cccc(C)c3[nH]c2=O)c1	active: 14.1 µM	–
CCCCCn1c(=NC(C)=O)c(C#N)cc2c(=O)n3ccccc3nc21	inconclusive [inhibitor, partial curve]	–
CC(C)NC(=O)Cn1c(SCC(=O)c2ccc(F)cc2)nc2ccccc21	inconclusive [inhibitor, single point]	–

SMILES	Potency	activity, negative = inhibition
C=CCNC(=O)N1CCc2nc(-c3ccc(OC)cc3C)c3c(c2C1)CO[C@@H](c1ccccc1)C3	inconclusive [inhibitor, partial curve]	–
COC(=O)c1sc2ccccc2c1-n1cccc1C(=O)C(=O)Nc1ccc(C)cc1	inconclusive [inhibitor, single point]	–
COc1cc(/C=C2\SC(=O)N(CC(=O)Nc3cccc(C)c3)C2=O)cc([N+](=O)[O-])c1O	active: 22.4 µM	–
O=C(Cn1nc(C(F)(F)F)c2c1CCCC2)NCCN1CCOCC1	–	inactive: 3.63%
Cc1[nH]ncc1N=Cc1ccc([N+](=O)[O-])cc1	inconclusive [inhibitor, single point]	–
Cc1ccc(NC(=O)c2oc3ccccc3c2NC(=O)C2CCCO2)cc1C (configuration not stated)	inconclusive [inhibitor, partial curve]	–
CCn1c(=N)c(C(=O)NC)cc2c(=O)n3cccc(C)c3nc21	inconclusive [inhibitor, partial curve]	–
COc1cccc(C2CC(c3ccccc3)Nc3ncnn32)c1 (configuration not stated)	active: 7.08 µM	–
CC(Oc1ccc(Cl)cc1)c1ccnc(N)n1 (configuration not stated)	–	inactive: 1.24%
COc1ccccc1NC(=S)NNC(=S)Nc1ccc(OC(F)F)cc1	active: 7.08 µM	–
C#CCNC(=O)C1=C[C@H](c2csc3ccccc23)C[C@H](OCCCCO)O1	inconclusive [inhibitor, single point]	–
O=C(Nc1cccnc1)C1CCCN1S(=O)(=O)c1ccc(Cl)c(Cl)c1 (configuration not stated)	–	inactive: 12.4%
O=C(CSc1nnnn1C1CCCCC1)Nc1cccc(NC(=O)c2ccco2)c1	active: 28.2 µM	–
CC(C)CCNCC1OCc2ccccc2CO1	–	inactive: -9.04%
O=C(C1CC1)N1CCc2cc(Br)cc(S(=O)(=O)NCc3ccccn3)c21	inconclusive [inhibitor, single point]	–
CC/C=C\C/C=C\C/C=C\C/C=C\C/C=C\C/C=C\CCC(=O)O[C@H](COCCCCCCCCCCCCCCCC)COP(=O)([O-])OCC[N+](C)(C)C	–	inactive: 0.669%
CCCc1ccc(C(=O)Cn2nc(C(=O)O)c3ccccc3c2=O)cc1	–	inactive: 8.37%
O=C(O)c1ccccc1-c1oc2cc(O)ccc2c(=O)c1Oc1ccccc1	active: 20 µM	–
Cc1cc(=O)oc2cc(OCC(=O)Nc3nnc(CC(C)C)s3)ccc12	inconclusive [inhibitor, partial curve]	–
NC(=S)c1ncc(C(F)(F)F)cc1Cl	active: 28.2 µM	–
CCN(Cc1ccncc1)C(=O)C1CCN(S(=O)(=O)c2cccs2)CC1	–	inactive: -19.9%
COc1cc(C2NC(=O)C(C#N)=C(S)N2c2ccccc2)ccc1OC(C)C (configuration not stated)	inconclusive [inhibitor, single point]	–
CCOC(=O)c1oc2ccccc2c1CSc1nnnn1-c1ccc(OC)cc1	inconclusive [inhibitor, partial curve]	–
CC(C)C[C@@H](CC(=O)N[C@@H](CCC(=O)O)CC(=O)O)NC(=O)[C@@H]1CCCC[C@H]1NC(=O)C[C@H](CCCN)NC(=O)C[C@H](Cc1c[nH]c2ccccc12)NC(=O)[C@@H]1CCCC[C@H]1N	–	inactive: -8.71%

SMILES	Potency	activity, negative = inhibition
COc1ccc(/C=C/C(=O)c2ccc(O)cc2)cc1COc1ccc(F)cc1	inconclusive [inhibitor, partial curve]	–
COc1ccccc1/C=C/C=N/n1c(-c2ccc(C)cc2)n[nH]c1=S	active: 31.6 µM	–
CCn1c(COc2ccc3c(c2)CCCC3)nnc1SCC(=O)Nc1ccc(C(=O)OC)cc1	–	inactive: -10.3%
OCCN(CCO)c1nc(N2CCCCC2)c2nc(N(CCO)CCO)nc(N3CCCCC3)c2n1	–	inactive: -13.1% [at 20.9 µM]
OC1CCN(c2ncnc3c2nnn3Cc2c(F)cccc2Cl)CC1	inconclusive [inhibitor, partial curve]	–
Cc1cc(O)c(C=O)c2c1C(=O)Oc1c(CO)c(O)c3c(c1O2)C(O)OC3=O (configuration not stated)	inconclusive [inhibitor, partial curve]	–
C=CCCCCCC	–	inactive: -4.48%
O=c1cc(CN2CCN(c3ccc(F)cc3)CC2)c2cc3c(cc2o1)CCCC3	inconclusive [inhibitor, single point]	–
COC(=O)C1=C(NC(=O)c2ccc(C)cc2)CCS1	–	inactive: 15.6%
O=C1OC(c2ccccc2)=N/C1=C\C=C\c1ccccc1[N+](=O)[O-]	inconclusive [inhibitor, single point]	–
CCN(CC)CCCNC(=O)c1cc2c(Cl)nc3ccccc3c2s1	inconclusive [inhibitor, single point]	–
c1nc(NCCN2CCOCC2)c2cc(-c3ccoc3)ccc2n1	inconclusive [inhibitor, single point]	–
CCOC(=O)Cn1c(=NC(=O)c2cccs2)sc2cc(C(=O)OC)ccc21	inconclusive [inhibitor, partial curve]	–
CC1CN(C(=O)c2nn(C)cc2[N+](=O)[O-])CC(C)O1 (configuration not stated)	–	inactive: 16.1%
Cc1[nH]c2ccccc2c1C1C(c2ccccc2)=NN=C(C(C)C)N1O (configuration not stated)	–	inactive: -11.2%
COc1ccc(Cl)cc1NC(=O)CC(C)=O	inconclusive [inhibitor, single point]	–
Cc1ccc(S(=O)(=O)Nc2ccccn2)cc1[N+](=O)[O-]	–	inactive: -40.6%
CCOC(=O)c1cc2c(ccn2C)n1CC(=O)N1CCN(c2cccc(C(F)(F)F)c2)CC1	inconclusive [inhibitor, single point]	–
OB(O)c1ccc(Br)cc1	–	inactive: 2.72%
COc1cc2c(cc1NC(=O)COC(=O)C1CC(=O)N(Cc3ccco3)C1)oc1ccccc12 (configuration not stated)	inconclusive [inhibitor, single point]	–
C=CCn1c(SCC(=O)Nc2cccnc2Cl)nnc1-c1ccc(C(C)(C)C)cc1	inconclusive [inhibitor, single point]	–
Cc1ccc(C(=O)CSc2nnc(-c3ccccc3N)n2C)cc1C	inconclusive [inhibitor, single point]	–
COc1cccc(CC2(CO)CCCN(Cc3ccc(C)s3)C2)c1 (configuration not stated)	–	inactive: 3.73%
O=C(c1ccc(Br)cc1)c1cc([N+](=O)[O-])ccc1N1CCOCC1	inconclusive [inhibitor, single point]	–
